# According to PubChem BioAssay AID1466 (National Center for Advancing Translational Sciences (NCATS), 2008):
# About 10 (0.005%) of roughly 200,000 compounds were called active. This list was built around the results that the source calls inconclusive (neither active nor inactive); the mix of calls is not that of the screen. The call rests on the fitted dose curve; in most records, active means well fitted inhibition curve with a large enough effect; inconclusive means small, poorly fitted or top-dose-only effect, or effect the other way, or another doubt; inactive means no such curve, though single readings can be large or run the other way. Potencies of inconclusive entries are left out as doubtful fits.
# Target: Lysosomal alpha-glucosidase (Homo sapiens) (UniProt P10253)
# Assay: qHTS Assay for Inhibitors of Human alpha-Glucosidase as a Potential Chaperone Treatment of Pompe Disease;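 on activity change, negative = inhibition: plate controls were uninhibited enzyme wells for no effect and no-enzyme background for full effect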
# Conditions: purified human GAA, 4-MU-alpha-glucoside fluorescence; activity change, negative = inhibition: at 76.9 µM (top of the series) unless noted
# In short: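 Compounds are titrated up to 77 uM against 4 nM human enzyme. Substrate 4-methylumbelliferyl-alpha-D-pyranoside (400 uM) reacts 20 min at room temperature in pH 5.0 buffer; liberated 4-methylumbelliferone is read at 440 nm.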
# Potency means the concentration at half of the fitted maximal effect; tags describe the fitted curve by direction and shape.
SMILES,Potency,"activity change, negative = inhibition"
CCNC(=S)N/N=C/c1sc(N2CCCCC2)nc1-c1cccs1,inactive,
COc1ccccc1-c1nc(C#N)c(N2CCC(Cc3ccccc3)CC2)o1,"inconclusive [activator, single point]",
CC(=O)Oc1cc(OC(C)=O)c2c(C)cc(=O)oc2c1,"inconclusive [activator, partial curve]",
COc1ccc(Nc2cc(C(=O)N3CCc4ccccc4C3)c3ccccc3n2)c(OC)c1,"inconclusive [inhibitor, full curve]",
CCN(CC)S(=O)(=O)c1ccc(N(C)Cc2ccc(C(F)(F)F)cc2)nc1,"inconclusive [inhibitor, single point]",
Cc1nn(Cc2ccccc2)c(C)c1NC(=O)CSc1nc2c(c(C(F)(F)F)n1)CCc1ccccc1-2,"inconclusive [inhibitor, partial curve, poor fit]",
CC1CCc2c(nc3ncnn3c2N2CCN(c3ccccc3F)CC2)C1 (stereo not given),inactive,
Cc1ccc(C)c(Nc2nc3c(S(=O)(=O)c4ccccc4)nnn3c3ccccc23)c1,"inconclusive [activator, full curve]",
O=C(NCc1n[nH]c(=S)n1-c1cccc(Cl)c1)c1ccc(S(=O)(=O)N2CCCC2)cc1,"inconclusive [inhibitor, partial curve, poor fit]",
O=S(=O)(NCCc1ccccc1)c1ccc(Cl)nc1,"inconclusive [inhibitor, single point]",
CCCCN(CCCC)CCCOC(=O)c1ccc(N)cc1,"inconclusive [inhibitor, full curve, poor fit]",
O=S(=O)(c1ccc(Br)cc1)N1CCN(c2ccc3nnc(-c4ccccc4)n3n2)CC1,"inconclusive [inhibitor, partial curve]",
O=C(C1CCCCC1)N(Cc1nc2sc3c(c2c(=O)[nH]1)CCCC3)Cc1cccs1,"inconclusive [inhibitor, single point]",
CCN(CC)C(=O)CSc1nc(-c2ccco2)cc(C(F)(F)F)c1C#N,"inconclusive [activator, partial curve]",
COc1cc(OC)c(OC)cc1C=NCC1(c2ccccc2)CCCC1,"inconclusive [inhibitor, single point]",
O=C(O)CC1=C(O)C(=O)N(c2ccccc2)C1c1ccc(Br)cc1 (stereo not given),inactive,
CCCCCn1c(=O)c(-c2nc3ccccc3[nH]2)c(O)c2ccccc21,"inconclusive [activator, partial curve]",
CCOC(=O)C1CCCN(C(=O)c2cccc([N+](=O)[O-])c2C)C1 (stereo not given),,inconclusive: 17.8% [activator]
Oc1ccc(-c2nc3ncccn3c2Nc2ccc3c(c2)OCO3)cc1,inactive,
Cc1ccc(Cl)cc1N1CCN(C(=O)C2(S(=O)(=O)c3ccc(Cl)cc3)CC2)CC1,"inconclusive [inhibitor, full curve]",
CSc1nsc(SCC(=O)Nc2ccc3c(c2)OCCO3)n1,"inconclusive [inhibitor, single point]",
Cc1cc(Sc2nc(NC(C)(C)C)nc(N3CCOCC3)n2)nc(Cl)n1,"inconclusive [inhibitor, full curve, poor fit]",

SMILES,Potency,"activity change, negative = inhibition"
COc1cccc(-c2cc3nc4c(c(N5CCC6(CC5)OCCO6)n3n2)CCC4)c1,,inconclusive: 11.7% [activator]
O=C(Nc1ccc(F)c(Cl)c1)Nc1ccc(Cl)cn1,,inconclusive: 17.2% [activator]
O=C(NN=C(Cc1ccccc1)Cc1ccccc1)c1ccc(F)cc1,inactive,
COc1cc(C)c(NC(=S)Nc2cccc(Cl)c2C)cc1OC,"inconclusive [inhibitor, full curve]",
Cc1ccc(CN2C(=O)CCC2C(=O)N2CCN(c3ccccc3)CC2)cc1 (stereo not given),"inconclusive [inhibitor, single point]",
O=C(O)C(c1ccccc1)N1CCCCC1 (stereo not given),"inconclusive [inhibitor, partial curve, poor fit]",
CCCc1cc(Nc2c(C)n(C)n(-c3ccccc3)c2=O)n2c(nc3ccccc32)c1C#N,,inconclusive: -16.4% [inhibitor]
COc1ccccc1CN1C(=S)SC(C)(C)C1NO (stereo not given),,inconclusive: -15.8% [inhibitor]
COc1ccccc1-c1noc(CCC(=O)Nc2cc(C(F)(F)F)ccc2Cl)n1,"inconclusive [inhibitor, partial curve, poor fit]",
CCCOc1ccc(N2C(=O)CC(N(Cc3ccc(S(N)(=O)=O)cc3)C(=O)CC)C2=O)cc1 (stereo not given),"inconclusive [inhibitor, single point]",
O=C(CCNC(=O)c1ccccc1Cl)NC1=NCCS1,inactive,
CC1CCC/C(=C\Nc2ccc(C(=O)O)cc2)C1=O (stereo not given),"inconclusive [inhibitor, partial curve, poor fit]",
CCc1nnc(NC(=O)C2CCN(c3cnccn3)CC2)s1,"inconclusive [inhibitor, single point]",
CCOC(=O)CSC1=C(C#N)C(c2ccc(Cl)cc2)CC(=O)N1 (stereo not given),"inconclusive [inhibitor, partial curve]",
C/C(=C\c1ccccc1)CN1CCN(Cc2ccc(C)o2)C(CCO)C1 (stereo not given),,inconclusive: 10.6% [activator]
Cc1ccc(Nc2nnc(SCC(=O)c3ccc(Br)s3)s2)c(C)c1,"inconclusive [inhibitor, full curve]",
O=C(Nc1ccc(S(=O)(=O)N2CCN(Cc3ccccc3)CC2)cc1)c1cnccn1,"inconclusive [inhibitor, partial curve]",
CCOC(=O)c1c(NC(=S)Nc2ccc(OCC)cc2)sc2c1CCN(C)C2,"inconclusive [inhibitor, single point]",
CCN(CC)c1ccc(NC(=O)COC(=O)C23CCC(=O)N2c2ccccc2S3)cc1 (stereo not given),inactive,
O=C(COC(=O)COc1ccccc1[N+](=O)[O-])Nc1ccc(S(=O)(=O)N2CCCCC2)cc1,"inconclusive [inhibitor, full curve, poor fit]",
CCC(C)c1ccc(NC(=O)COC(=O)C2=COCCO2)cc1 (stereo not given),"inconclusive [inhibitor, single point]",
NC(=O)c1ccsc1NC(=O)COC(=O)C1CCCN1C(=O)c1cccs1 (stereo not given),"inconclusive [inhibitor, partial curve]",

SMILES,Potency,"activity change, negative = inhibition"
CCCCc1ccc(/C=C2\C(=O)c3ccccc3C(O)=C2C(=O)OCC)cc1,"inconclusive [inhibitor, single point]",
Cc1ccccc1NC(=S)NNc1ncc(C(F)(F)F)cc1Cl,inactive,
Cc1ccc(/C=C2\Oc3cc(OC(=O)N4CCOCC4)ccc3C2=O)cc1,"inconclusive [inhibitor, single point]",
COc1ccccc1/C=N/NC(=O)CNC(=O)c1ccc(S(=O)(=O)N2CCCC2)cc1,"inconclusive [inhibitor, full curve, poor fit]",
Cc1nc(N2CCCCC2C)c2c(C)c(C(=O)Nc3cccc(C(F)(F)F)c3)sc2n1 (stereo not given),"inconclusive [activator, single point]",
CCN(CC)c1nc(-c2cccc(OC)c2O)nc2ccccc12,"inconclusive [inhibitor, partial curve]",
O=C(O)c1cc2c(ccc3ccccc32)oc1=O,"inconclusive [activator, partial curve]",
COc1ccc(C(=O)/C(=C\N(C)C)n2nc(C)cc2C)cc1,"inconclusive [activator, partial curve, poor fit]",
O=C(Cn1c2ccc(F)cc2c2nc3n(c(=O)c21)CCS3)Nc1ccccc1C(F)(F)F,"inconclusive [activator, single point]",
N#C/C(=C\c1cn(CCOc2ccccc2)c2ccccc12)C(=O)NCC1CCCO1 (stereo not given),"inconclusive [inhibitor, single point]",
O=C(CSc1ccc(-c2cccc([N+](=O)[O-])c2)nn1)NCc1ccccc1,"inconclusive [inhibitor, single point]",
CCOC(=O)c1cc(-c2ccc(N)cc2)sc1N,"inconclusive [inhibitor, partial curve]",
Cc1c(NC(=S)N2CCN(c3ccc(F)cc3)CC2)c(=O)n(-c2ccccc2)n1C,,inconclusive: 13.2% [activator]
CCOC(=O)N1CCN(c2c(NCCCN(CC)Cc3ccccc3)c(=O)c2=O)CC1,"inconclusive [inhibitor, partial curve]",
Cc1ccc(-c2cc(C(=O)NCc3ccco3)c3ccccc3n2)o1,,inconclusive: 15.3% [activator]
Cc1cc(=O)[nH]c(SCC(=O)N(CCC#N)c2ccccc2)c1C#N,"inconclusive [inhibitor, single point]",
Cc1cc(Oc2ccccc2)nc2ccc(O)cc12,,inconclusive: 17% [activator]
CCCCc1cc(=O)oc2c(CN(C)C)c(O)ccc12,"inconclusive [activator, partial curve]",
Cc1cccc(-n2c(O)c(C=Nc3cc(O)ccc3C)c3ccccc3c2=O)n1,"inconclusive [inhibitor, partial curve, poor fit]",
N#Cc1c(/N=C/c2ccco2)sc2c1CCC2,inactive,
CN1CCN(NC(=O)CN2C(=O)/C(=C/c3c(Cl)cccc3Cl)SC2=S)CC1,"inconclusive [inhibitor, single point]",
